# Source: PubChem BioAssay (Tox21)
# “And” between values parts separate entries of the source, which are not always exact repeats. Equal values may be shown once. Inconclusive means that the source gave no clear call. Such entries were picked first, then a sample of the others. For part of these data: Where the call is inconclusive, the potency comes from a doubtful curve fit. The source made the active and inactive calls. Unless noted, calls follow the shape of the dose curve; as a rule, active = well fitted curve in the direction sought with a large enough effect in the repeat runs; inconclusive = weak or mixed curves; inactive = no such curve, though single readings can be large; an effect the other way counts as inactive or inconclusive.
# What was measured:
# [1] = qHTS assay to identify small molecule agonists of the constitutive androstane receptor (CAR) signaling pathway - cell viability counter screen (AID 1224836); also: nearly all actives have a fitted effect of over 45% in size; also: potency is read from the fitted curve at half-maximal effect
# Method in brief: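 Cells were seeded and incubated 4 hrs. Compounds were added across 15 concentrations together with PK11195 at 0.75 uM final. Plates were incubated 23 hrs at 37 C. CellTiter-Fluor was added and fluorescence measured.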
# [2] = target: Luciferin 4-monooxygenase (Photinus pyralis) (UniProt P08659); experiment: qHTS assay to identify small molecule inhibitors of firefly luciferase (AID 1224835); also: potency is read from the fitted curve at half-maximal effect; nearly all actives have a fitted effect of over 25% in size
# Sequence of UniProt P08659 (P08659 whole entry, looked up): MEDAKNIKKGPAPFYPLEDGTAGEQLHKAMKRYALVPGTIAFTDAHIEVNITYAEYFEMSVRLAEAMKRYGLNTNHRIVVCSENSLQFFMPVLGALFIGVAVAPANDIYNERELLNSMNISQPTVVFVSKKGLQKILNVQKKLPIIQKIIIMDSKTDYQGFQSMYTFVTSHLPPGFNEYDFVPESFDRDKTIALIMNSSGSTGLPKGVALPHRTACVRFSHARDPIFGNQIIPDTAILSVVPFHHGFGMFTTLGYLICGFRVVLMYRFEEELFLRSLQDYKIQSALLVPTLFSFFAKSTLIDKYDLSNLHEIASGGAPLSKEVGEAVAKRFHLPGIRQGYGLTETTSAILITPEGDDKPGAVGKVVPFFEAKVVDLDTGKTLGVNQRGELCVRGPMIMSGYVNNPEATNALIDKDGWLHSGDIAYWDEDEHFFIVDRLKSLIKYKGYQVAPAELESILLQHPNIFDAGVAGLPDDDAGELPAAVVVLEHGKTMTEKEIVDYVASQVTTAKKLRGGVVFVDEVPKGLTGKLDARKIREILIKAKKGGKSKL
# Method in brief: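 Quantitative HTS format; KM concentrations of both substrates. Purified P. pyralis FLuc activity quantified from luminescence images.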
# [3] = qHTS assay to identify small molecule agonists of H2AX - cell viability counter screen (AID 1224847; calls by dose curve; also: potency is read from the fitted curve at half-maximal effect; nearly all actives have a fitted effect of over 30% in size)
# Method in brief: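 Cytotoxicity counter screen in wild-type CHO-K1 cells: a 3 hr compound treatment at 37C across 15 concentrations, followed by CellTiter-Glo luminescence to gauge viable cells.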
# [4] = qHTS RealTime-Glo MT Cell Viability Assay in HEK293 cells - 32 hour (AID 1224868); also: nearly all actives have a fitted effect of over 50% in size; also: potency is read from the fitted curve at half-maximal effect
# Method in brief: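 Viability tracked continuously by luminescence as live cells reduce a prosubstrate for NanoLuc; HEK293 cells preincubated 5 h, compound-treated at 37 C, and read at 0, 8, 16, 24, 32 and 40 h.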
# [5] = qHTS assay to identify small molecule agonists of H2AX (AID 1224845; active = well fitted activation curve with a large enough effect in the signal ratio in the repeat runs, not every such curve was filed as active; inconclusive = weak or mixed curves; the % refers to the signal ratio); conditions: CHO-K1 phospho-H2AX Ser139 HTRF, 3 h; series mostly up to 154 µM
# Method in brief: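 Wild-type CHO-K1 cells plated overnight, then exposed 3 hr at 37C to compounds at 15 concentrations (0.76% DMSO). Lysed, then HTRF anti-pH2AX(S139)-cryptate/anti-H2AX-d2 detection after 24 hr at room temperature; emissions 665 and 620 nm.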
# [6] = qHTS assay to identify small molecule agonists of the hypoxia (HIF-1) signaling pathway - cell viability counter screen (AID 1224844; calls by dose curve; also: potency is read from the fitted curve at half-maximal effect; nearly all actives have a fitted effect of over 50% in size)
# Method in brief: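 CellTiter-Glo luminescence read-out, 30 min RT, taken in the same wells as the beta-lactamase HRE reporter assay; HRE-bla ME-180 cells, 0.5% dialyzed FBS, 17 hr compound treatment at 37C, 5% CO2.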
# [7] = qHTS assay to identify small molecule agonists of the hypoxia (HIF-1) signaling pathway (AID 1224846; active = well fitted activation curve with a large enough effect in the signal ratio in the repeat runs, not every such curve was filed as active; inconclusive = weak or mixed curves; the % refers to the signal ratio; also: potency is read from the fitted curve at half-maximal effect); conditions: HRE-bla ME-180 cells, beta-lactamase ratio, 17 h; activation: at 76.8 µM (top of the series) unless noted
# Method in brief: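 Beta-lactamase FRET read-out (CCF4-AM substrate) from ME-180 cells carrying an HRE-driven bla reporter, after 17 hrs compound exposure at 37C/5% CO2. Cells were seeded at 2,000 per well in 0.5% dialyzed FBS medium and preincubated 5 hrs.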
# [8] = qHTS assay to identify small molecule antagonists of the constitutive androstane receptor (CAR) signaling pathway - cell viability counter screen (AID 1224837); also: potency is read from the fitted curve at half-maximal effect; nearly all actives have a fitted effect of over 45% in size
# Method in brief: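 Read-out: CellTiter-Fluor fluorescence after 23 hr at 37 C/5% CO2. Cells: HepG2 double-stable for hCAR and CYP2B6-2.2kb. Compounds tested at 15 concentrations in the presence of CITCO, final concentration 50 nM.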
# Tags tell the direction and shape of the fitted curve or compound fluorescence and quenching.
smiles,measurement,setting,value
O=C(CCN1CCN(CCO)CC1)N1c2ccccc2Sc2ccc(C(F)(F)F)cc21,Potency,[1],inactive
CC(C)(C)CC(C)(C)N,Potency,[1],inactive
c1ccc2[nH]c(-c3cscn3)nc2c1,Potency,[2],active: 28.4 µM and active: 35.6 µM and active: 17.4 µM
same,Potency,[3],"inconclusive: 113 µM [cytotoxic, partial curve, poor fit]"
same,Potency,[4],"inconclusive: 43.9 µM [cytotoxic, partial curve] and inconclusive: 34.7 µM [cytotoxic, partial curve]"
Cc1cccc(N(C)C(=S)Oc2ccc3ccccc3c2)c1,Potency,[2],"inconclusive: 25.2 µM [inhibitor, full curve]"
same,Potency,[5],inactive
same,Potency,[3],"inconclusive: 28.4 µM [cytotoxic, full curve] and inconclusive: 55.2 µM [cytotoxic, single point]"
C=CCc1ccc(OC)c(OC)c1,Potency,[2],"inconclusive: 64 µM [inhibitor, partial curve, poor fit]"
same,Potency,[4],inactive
O=S(c1cc(Cl)cc(Cl)c1O)c1cc(Cl)cc(Cl)c1O,Potency,[2],"inconclusive: 43.6 µM [inhibitor, single point]"
same,Potency,[6],"inconclusive: 2.68 µM [cytotoxic, single point]"
same,Potency,[5],inactive
same,Potency,[7],"inconclusive: 16.9 µM [falling, partial curve]"
same,Potency,[3],"inconclusive: 61.9 µM [cytotoxic, partial curve, poor fit]"
CC(C)[C@H]1CC[C@H](C)C[C@@H]1O,Potency,[1],inactive
Cc1ccc(NC(=O)c2ccc(CN3CCN(C)CC3)cc2)cc1Nc1nccc(-c2cccnc2)n1,Potency,[1],"inconclusive: 29.8 µM [cytotoxic, partial curve]"
same,Potency,[8],"inconclusive: 29.8 µM [cytotoxic, partial curve]"
